PubChem BioAssay AID662 (National Center for Advancing Translational Sciences (NCATS), 2007)
Several values for one entry are separate records, joined by “and”; a condition that tells them apart may be missing. Equal values may be shown once. In all, about 71,000 compounds went through this assay and about 1,800 (2.5%) were called active. Inconclusive results, whose numbers are uncertain, are shown with a selection of clear calls. Calls come from the whole dose curve; as a rule, active = well fitted activation curve with a large enough effect in the signal ratio, with a control signal flat (not every such curve was filed as active); inconclusive = small, poorly fitted or top-dose-only effect, or effect the other way, or a change in a side signal; inactive = flat fitted curve, though single readings scatter; the % refers to the signal ratio. Potencies beside an inconclusive call are fits to weak or partial responses and may not hold up.

assay: Cell signaling CRE-BLA (Fsk stim); conditions: CHO CRE-bla reporter (cAMP response element driving beta-lactamase), forskolin EC10, beta-lactamase ratio; activity change, negative = inhibition: at 38.2 µM (top of the series) unless noted; for activity change, negative = inhibition: % of control where 0% means no effect
In short: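 The 460nm/530nm emission ratio after CCF4 loading defined %Activity, from which AC50 values were obtained. CRE-bla CHO cells received compound dilution series together with an EC10 level of NKH 477 for 3 hours at 37 degrees Celsius.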
Potency is the fitted concentration of half-maximal effect; tags give direction and shape of the fitted curve.

Compound	activity change, negative = inhibition	Potency
Cn1c(C(=O)N2CCCC(C(=O)NCCCc3ccccc3)C2)cc2sccc21 (stereo not drawn)	inactive: -8.45%	–
O=C(c1cc(-c2ccccn2)nc2c(Cl)cccc12)N1CCN(C(=O)C2CCCO2)CC1 (stereo not drawn)	inconclusive: 13.9%	–
NC1=C(c2ccc(F)cc2)C(=O)CS1	inconclusive: 19%	–
CCN1CCN(Cc2c(O)c(Cl)cc3c(C)cc(=O)oc23)CC1	–	active: 3.98 µM
CC(=O)O[C@]1(C(C)=O)CC[C@@H]2[C@@H]3C=C(C)C4=CC(=O)CC[C@@]4(C)[C@H]3CC[C@]21C	inconclusive: 25% [at 17.1 µM]	–
O=C(c1cc(Br)ccc1O)c1cc(Br)ccc1O	inactive: 3.93% [at 7.6 µM]	–
COc1ccc(OC)c(C(=O)COC(=O)c2ccccc2O)c1	inactive: 0.942%	–
CCN1CCCC1CNC(=O)c1cc2c(-c3cccc(OC)c3)nn(C)c2s1 (stereo not drawn)	inconclusive: 23.7%	–
CCCCOc1cc(C[C@@H]2CNC(=O)N2)ccc1OC	–	active: 5.01 µM and active: 398 nM
Cc1ccc2c(nc3s/c(=C/c4cccs4)c(=O)n32)c1C	inconclusive: -15.8%	–
COc1ccccc1CCC(=O)Nc1nc2ccccc2[nH]1	inactive: 12.6%	–
COC(=O)c1sc2nc(-c3ccco3)ccc2c1N	–	inconclusive: 15.8 µM [falling, single point]
CCn1c(SCC(=O)NCc2ccco2)nc2c1c(=O)n(C)c(=O)n2C	inconclusive: 3.53%	–
O=C(CCNc1ccc(F)c(Cl)c1)c1ccco1	inconclusive: 2.99% [at 7.6 µM]	–
O=S(=O)(c1ccc2c(c1)OCCO2)N1CCC(c2nc3ccc(Cl)cc3[nH]2)CC1	inconclusive: -9.27%	–
CC1CN(Cc2ccc(C#N)cc2Cl)CC(C)O1 (stereo not drawn)	inconclusive: 3.87%	–
COCCCNC(=O)c1cccc(C(=O)NCCCOC)c1	inconclusive: -8.74% [at 7.6 µM]	–
O=C(Cn1cnc2c(nnn2-c2ccc(F)cc2)c1=O)N1CCCc2ccccc21	inconclusive: 5.89%	–
COc1ccc(S(=O)(=O)Nc2ccc(F)c(F)c2)cc1Cl	inconclusive: 2.73%	–
O=C1c2cccc3c(N4CCCCC4)ccc(c23)C(=O)N1c1ccccn1	inconclusive: -14%	–
CCOC(=O)c1c(NC(=O)C2CCCN2S(=O)(=O)c2cccc3nsnc23)sc(C)c1C (stereo not drawn)	inconclusive: 36.4% [at 7.6 µM]	–
O=C1c2ccccc2C(=O)N1Cc1ccc2c(c1)OCO2	inactive: 0.133%	–

Compound	activity change, negative = inhibition	Potency
COc1ccccc1-c1nnc(SCC(=O)NCc2c(C)c(Cl)cc(C(C)C)c2O)o1	inconclusive: -25.6%	–
Cc1cccn2c(N)c(-c3ccccc3)nc12	inactive: -4.06%	–
CCOC(=O)C1=C(CN2CCN(c3ccc(F)cc3)CC2)NC(=O)NC1c1cccs1 (stereo not drawn)	–	inconclusive: 12.6 µM [rising, single point]
COc1cccc(C(c2sc3ncnn3c2O)N2CC(C)OC(C)C2)c1 (stereo not drawn)	–	inconclusive: 12.6 µM [rising, partial curve]
COC(=O)[C@@]1(Cc2ccccc2)[C@H]2c3cc(C(=O)N(C)C)n(CCF)c3C[C@H]2CN1C(=O)c1ccccc1	inactive: -13.4%	–
Cc1nc2sc(C)c(C)c2c(=O)[nH]1	–	inconclusive: 12.6 µM [rising, single point]
COCc1cc(C)c(C#N)c(=S)[nH]1	inactive: -4.18%	–
Cn1c(=O)c2c(nc(NCc3ccccc3)n2Cc2ccc(F)cc2)n(C)c1=O	–	inconclusive: 12.6 µM [rising, single point]
O=C(OCc1c(Cl)cccc1Cl)c1ccccn1	inconclusive: -6.97%	–
O=C(Cn1c(=O)n(CCCC(=O)NC2CCCC2)c(=O)c2ccccc21)NCCC1=CCCCC1	inactive: -3.37%	–
Cn1c(C(=O)OCC(=O)NCCc2ccccc2)cc2sccc21	inactive: -5.12%	–
COC(=O)COc1ccc(C(=O)OC)cc1	–	inconclusive: 3.16 µM [rising, single point]
CCN(CC)c1nc2ccccc2nc1C(C#N)C(=O)NCCc1ccccc1 (stereo not drawn)	–	inconclusive: 5.01 µM [falling, single point]
Cc1nc2cc(O)ccc2n1C	inactive: 12.3%	–
Cn1c(SC2=CS(=O)(=O)c3ccccc32)nc2ccccc21	inconclusive: -13.7%	–
Cn1c(C(=O)NCC2CCCO2)cc2c(=O)n(C)c3ccccc3c21 (stereo not drawn)	–	inconclusive: 6.31 µM [rising, partial curve]
CC[C@]1(c2ccccc2)NC(=O)N(C)C1=O	inactive: -1.02% [at 17.1 µM]	–
Cc1cc2ccccc2c(=O)n1CC(=O)NCC(=O)N1CCN(c2ccccc2)CC1	inconclusive: -0.0129%	–
COc1ccccc1CNC(=O)c1cnc2ccccn2c1=O	–	inconclusive: 10 µM [rising, partial curve]
O=c1[nH]c2ccccc2n1CCCSCCCn1c(=O)[nH]c2ccccc21	inactive: -14.4%	–
CCn1nnnc1SCC(=O)Nc1cc(OC)cc(OC)c1	inactive: -3.44%	–
CC1=C(C(=O)Nc2cc(C)ccn2)C(c2ccc(C)cc2)C2=C(CCCC2=O)N1 (stereo not drawn)	inconclusive: 23.9%	–

Compound	activity change, negative = inhibition	Potency
COc1ccc(Cc2nn3c(-c4cc(OC)c(OC)c(OC)c4)nnc3s2)cc1	–	active: 5.01 µM
C=CCn1c(Cc2cccs2)nnc1SCC(=O)Nc1cccc(OC)c1	inconclusive: 28.9%	–
ClCCCl	inactive: -12.4%	–
Cc1cc(-n2c(=O)c(C#N)cc3c(=O)n4ccccc4nc32)no1	–	inconclusive: 2.51 µM [rising, full curve]
COc1ccccc1CNc1ncnc2ccc(-c3cccnc3)cc12	–	inconclusive: 1.58 µM [rising, full curve, poor fit]
CCOc1ccc(-n2c(=O)[nH]cc(C(=O)N3CCc4ccccc43)c2=O)cc1	–	inconclusive: 0.2 µM [falling, full curve, poor fit]
CCOC(=O)c1c(NC(=O)C(F)(OC)C(F)(F)F)sc(C(=O)N2CCCCC2)c1C (stereo not drawn)	–	inconclusive: 12.6 µM [rising, partial curve]
COc1ccc(-c2nn3c(-c4cccc(C)c4)nnc3s2)cc1OC	–	active: 2 µM
CCOC(=O)c1cc(-c2ccc(/C=N\n3cnnc3)o2)ccc1Cl	inactive: 25.4%	–
CC1CCN(c2oc(-c3ccccc3F)nc2C#N)CC1	–	inconclusive: 12.6 µM [rising, partial curve]
O=C(NCc1ccco1)c1cc(-c2ccc3c(c2)OCO3)on1	inactive: 6.75%	–
O=C(NCCN1CCOCC1)C1CCN(S(=O)(=O)N2CCCCC2)CC1	inactive: 9.85%	–
O=C(CCS(=O)(=O)c1ccc(Br)cc1)N1CCN(c2ccccc2F)CC1	inactive: 6.67%	–
COc1ccc(N2CCN(C(=O)CSc3ccccc3)CC2)cc1	–	inconclusive: 0.02 µM [rising, full curve, poor fit]
Cc1cc2oc(=O)cc(CN3CCCCC3)c2cc1C(C)C	inconclusive: 1.05%	–
O=C(Nc1ccc(N2CCCC2)c(Cl)c1)c1ccco1	inconclusive: -2.58% [at 7.6 µM]	–
O=C(NC(C(=O)c1ccccc1)N1CCOCC1)c1cccs1 (stereo not drawn)	inconclusive: -5.34%	–
CCOC(=O)C1CCCn2c1nc1sc3c(c1c2=O)CCCC3 (stereo not drawn)	inconclusive: 25.1%	–
CCN(CC)CCCN(Cc1cc2cc(OC)ccc2[nH]c1=O)C(=O)Nc1ccc(F)cc1	inactive: 8.17%	–
c1csc(-c2nnc3ccccn23)c1	inactive: 7.52%	–
COCCOC(=O)C1=C(C)Nc2ncnn2C1c1ccccc1 (stereo not drawn)	inactive: 14.8%	–
Cc1cccc(NCc2ccccc2O)c1	inconclusive: 16.3%	–

Compound	activity change, negative = inhibition	Potency
O=C(O)C[n+]1ccccc1	inactive: 1.56% [at 7.6 µM]	–
CN(C)c1nc(N)nc(CSc2nc3cc(Cl)ccc3o2)n1	–	active: 2.51 µM
O=C1c2ccccc2C(=O)N1CCc1nc(-c2cccnc2)no1	inactive: 0.299%	–
CCOC(=O)C1CCCN(c2c(NCCCN(CC)c3ccccc3)c(=O)c2=O)C1 (stereo not drawn)	inconclusive: -2.99%	–
O=C(c1cccc(F)c1)N1CCN(S(=O)(=O)c2ccccc2)CC1	–	inconclusive: 12.6 µM [rising, single point]
Cc1nc2cnc(N3CCOCC3)nc2n(CCC#N)c1=O	–	inconclusive: 12.6 µM [rising, single point]
O=C(O)/C=C1\CCCc2ccccc2[C@H]1O	inconclusive: -8.01%	–
CC(=O)N1[C@H](C)C=C[C@]1(Cc1ccccc1)C(=O)NCc1ccc(C)o1	–	inconclusive: 10 µM [falling, single point]
Cc1cc(Nc2ccc(F)cc2F)n2ncnc2n1	inactive: 28.2%	–
CCOC(=O)c1c(-c2ccc(C)o2)csc1NC(=O)CN1CCN(CC)CC1	inactive: 26.6%	–
CC(=O)c1sc(NC(=O)C=C(C)C)nc1C	inactive: 7.45%	–
CC(=O)Nc1ccc(C(=O)Nc2ccc(S(=O)(=O)NCC3CCCO3)cc2)cc1 (stereo not drawn)	inactive: 3.08%	–
COc1ccc(OC)c(CNc2nc3ccccc3n2CCN2CCCCC2)c1	inconclusive: -3.01%	–
Brc1ccccc1-c1nnc(CSc2nnnn2-c2ccccc2)o1	inactive: 24.5%	–
COc1cccc2cc(C(=O)N3CCc4ccccc4C3)c(=O)oc12	inactive: -0.0799%	–
O=C(NCc1ccccn1)c1ccc2ccccc2n1	inactive: 7.61%	–
CC(C)(C)NC[C@H](O)COc1cccc2[nH]c(=O)[nH]c12	inconclusive: -24.5%	–
COc1cc(OC)cc(C(=O)NCc2cccnc2)c1	–	inconclusive: 10 µM [rising, partial curve]
Cc1cc(NC(=O)COC(=O)c2cc3c(s2)CCC(C)C3)no1 (stereo not drawn)	inconclusive: -1.86%	–
CCOCCn1c(=O)c2c(nc3n2CCN3c2ccccc2)n(C)c1=O	–	inconclusive: 5.01 µM [rising, partial curve, poor fit]
Cn1c(=O)c(-c2ccc(F)cc2)nc2cncnc21	inconclusive: 16.3%	–
COCCn1c(SCC(=O)c2[nH]c(C)c(C(C)=O)c2C)nc2ccccc21	–	inconclusive: 7.94 µM [rising, partial curve]
